Results as given in PubChem BioAssay AID720709 (National Center for Advancing Translational Sciences (NCATS), 2013).
Among all 360,000 compounds or so, about 520 (0.14%) were called active. Inconclusive means that the source gave no clear call. Such entries were picked first, then a sample of the others. Calls follow the shape of the dose curve; as a rule, active = well fitted inhibition curve with a large enough effect; inconclusive = small, poorly fitted or top-dose-only effect; inactive = no such curve, though single readings can be large or run the other way. No potency is given beside an inconclusive call; the fits are too rough.

These compounds were tested against Rap guanine nucleotide exchange factor 3 (Homo sapiens) (UniProt O95398) (assay: qHTS for Antagonist of cAMP-regulated guanine nucleotide exchange factor 3 (EPAC1): primary screen). Settings: EPAC1 GEF assay, Rap1b-BODIPY-GDP exchange fluorescence; activity change, negative = inhibition: at 115 µM (top of the series).
Also: nearly all actives have a fitted effect of over 50% in size.
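For activity change, negative = inhibition in this document: plate controls were vehicle for no effect and positive control for full effect.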
Potency is read from the fitted curve at half-maximal effect; tags tell the direction and shape of the fitted curve.

Sequence of UniProt O95398 (O95398 whole entry, looked up): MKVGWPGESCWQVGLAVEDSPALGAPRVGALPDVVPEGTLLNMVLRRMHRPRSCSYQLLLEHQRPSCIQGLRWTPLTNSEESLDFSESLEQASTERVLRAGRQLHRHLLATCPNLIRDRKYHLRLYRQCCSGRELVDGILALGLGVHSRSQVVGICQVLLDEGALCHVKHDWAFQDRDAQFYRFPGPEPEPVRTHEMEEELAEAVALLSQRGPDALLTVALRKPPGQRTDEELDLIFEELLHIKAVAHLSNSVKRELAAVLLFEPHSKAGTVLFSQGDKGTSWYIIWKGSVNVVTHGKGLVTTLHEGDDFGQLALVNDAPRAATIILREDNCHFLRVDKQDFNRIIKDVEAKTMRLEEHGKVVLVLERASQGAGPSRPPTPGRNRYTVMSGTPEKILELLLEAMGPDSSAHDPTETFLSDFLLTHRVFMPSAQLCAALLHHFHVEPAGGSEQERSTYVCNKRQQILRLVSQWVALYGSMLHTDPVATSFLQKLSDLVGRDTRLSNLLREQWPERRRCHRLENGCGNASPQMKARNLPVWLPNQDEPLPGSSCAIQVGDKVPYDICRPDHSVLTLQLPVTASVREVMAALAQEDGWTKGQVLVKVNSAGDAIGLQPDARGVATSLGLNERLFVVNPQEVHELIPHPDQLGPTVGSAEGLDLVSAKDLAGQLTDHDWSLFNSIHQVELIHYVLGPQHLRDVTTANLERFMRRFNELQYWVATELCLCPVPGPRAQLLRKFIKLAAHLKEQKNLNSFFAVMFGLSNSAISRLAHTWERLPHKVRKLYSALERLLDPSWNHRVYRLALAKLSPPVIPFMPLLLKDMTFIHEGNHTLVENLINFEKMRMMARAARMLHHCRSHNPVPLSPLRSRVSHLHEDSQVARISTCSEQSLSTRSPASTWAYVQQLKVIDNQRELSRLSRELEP

Row | Compound | Potency | activity change, negative = inhibition
1 | CC1NC(C)c2c(ccc3ccccc23)O1 (configuration not stated) | inconclusive [inhibitor, full curve, poor fit] | 
2 | Cc1cc2nc(C(C)(C)C)c(Cc3ccsc3)n2c(C)c1Br |  | inactive: -8.75%
3 | CC1CC2=C(NC(=S)NC2c2ccccc2F)/C(=C/c2ccccc2F)C1 (configuration not stated) |  | inactive: -10.3%
4 | CCOc1ccc(/C(C)=N/NC(=O)C(OC)c2ccccc2)cc1 (configuration not stated) | inconclusive [inhibitor, full curve, poor fit] | 
5 | COc1ccc(N=C2SC(CC(=O)Nc3ccccc3)C(=O)N2Cc2ccco2)cc1 (configuration not stated) | inconclusive [inhibitor, full curve, poor fit] | 
6 | COc1ccc(CN2CCN(C(=O)c3cccs3)CC2)cc1 | inconclusive [inhibitor, single point] | 
7 | N#Cc1cc2c(=O)n3ccccc3nc2n(Cc2ccco2)c1=NC(=O)c1ccco1 | inconclusive [inhibitor, full curve, poor fit] | 
8 | O=C(O)c1ccc(Nc2cccc(F)c2)c([N+](=O)[O-])c1 | inconclusive [inhibitor, full curve, poor fit] | 
9 | O=C(NCc1ccncc1)c1ccc(OCc2ccccc2)cc1 | inconclusive [inhibitor, single point] | 
10 | Cc1cc(N2CCCC2=O)cc(C)c1S(=O)(=O)NCCOc1ccc(C(C)(C)C)cc1 | inconclusive [inhibitor, full curve, poor fit] | 
11 | Cc1ccc(C)c(OC2=NS(=O)(=O)c3ccccc32)c1 |  | inactive: -4.66%
12 | Cc1c(Cl)c([N+](=O)[O-])nn1CC(=O)N1CCN(C23CC4CC(CC(C4)C2)C3)CC1 |  | inconclusive: -16.6% [inhibitor]
13 | CC1=C(C(=O)Nc2ccccc2)C(c2ccc(Cl)cc2)n2c(s/c(=C/c3cccc(OCC(=O)O)c3)c2=O)=N1 (configuration not stated) | inconclusive [inhibitor, partial curve] | 
14 | Cc1cccc(O)c1C | inconclusive [inhibitor, partial curve] | 
15 | Cc1nn(Cc2ccccc2)c(Cl)c1C(=O)OCc1nnc(-c2ccc(Cl)cc2)o1 | inconclusive [inhibitor, partial curve] | 
16 | Cc1c(OC(C)C(=O)NCc2ccncc2)ccc2c3c(c(=O)oc12)CCCC3 (configuration not stated) |  | inactive: -15.3%
17 | CN(C)CCNC(=O)/C(=C/c1ccc(-c2ccc(Cl)cc2Cl)o1)NC(=O)c1ccccc1 |  | inactive: -3.91%
18 | CC1=C(C(=O)OC(C)C)C(c2ccc(Cl)cc2)n2c(sc(=Cc3ccc(OCC(=O)O)cc3)c2=O)=N1 (configuration not stated) | inconclusive [inhibitor, partial curve, poor fit] | 
19 | Cc1cc(=O)oc2c(N)nccc12 | inconclusive [inhibitor, partial curve] | 
20 | CSc1ccccc1OCc1cc(C(=O)N(C)Cc2cnccn2)no1 | inconclusive [inhibitor, single point] | 
21 | CCN(CC)C(=O)CC(c1cc(OC)c(OC)c(OC)c1)c1c(OC)cc(OC)c2c(-c3ccccc3)cc(=O)oc12 (configuration not stated) | inconclusive [inhibitor, partial curve] | 
22 | c1ccc(-c2nnc3sc(-c4ccncc4)nn23)cc1 |  | inactive: 1.28%
23 | CC(=NNC(=O)c1ccc2nc[nH]c2c1)c1ccc(Br)cc1 | inconclusive [inhibitor, single point] | 

Row | Compound | Potency | activity change, negative = inhibition
24 | CCNC(=S)NNC(=O)c1cc(-c2cccnc2)nc2ccccc12 | inconclusive [inhibitor, partial curve, poor fit] | 
25 | Cc1cccc(S(=O)(=O)N2CCC(CO)(Cc3ccccc3)CC2)c1 | inconclusive [inhibitor, full curve, poor fit] | 
26 | CCCCN(Cc1cc2cc(OC)ccc2[nH]c1=O)S(=O)(=O)c1ccc(C)cc1 | inconclusive [inhibitor, partial curve] | 
27 | c1ccc(N2[C@@H]3c4ccccc4C[C@H]2c2ccccc23)cc1 |  | inactive: 5.66%
28 | NC(=O)CSc1nc2scc(-c3ccco3)c2c(=O)n1-c1ccccc1 | inconclusive [inhibitor, partial curve] | 
29 | COc1ccc(/C=N/N=C2/C(=O)Nc3ccccc32)cc1O | inconclusive [inhibitor, partial curve, poor fit] | 
30 | O=C(COc1cccc(C(F)(F)F)c1)Nc1ccc(S(=O)(=O)N2CCCCC2)cc1 | inconclusive [inhibitor, partial curve, poor fit] | 
31 | COc1ccc(C(C)=O)cc1CC1(C)C(=O)Nc2ccc(-c3cccc(C(F)(F)F)c3)cc21 (configuration not stated) | inconclusive [inhibitor, single point] | 
32 | CCOC(=O)/C(C#N)=C(C)/C=C1\Sc2ccccc2N1CC |  | inactive: -24.9%
33 | CC(NC(=O)COC(=O)c1ccc(Br)o1)c1ccccc1 (configuration not stated) |  | inactive: -16.2%
34 | CC(Sc1ccc([N+](=O)[O-])cn1)C(=O)Nc1nccs1 (configuration not stated) |  | inactive: -8.16%
35 | O=C1C=CC(=O)N1N(c1ccccc1)c1ccccc1 |  | inactive: -5.38%
36 | COC/C=C/C1=CC2=CC(=O)C(C)(OC(=O)c3cnc4ccccc4n3)C(=O)C2=CN1Cc1ccccc1 (configuration not stated) | inconclusive [inhibitor, single point] | 
37 | CS(=O)(=O)c1nc(-c2ccccc2)cc(-c2ccccc2)c1C#N | inconclusive [inhibitor, partial curve] | 
38 | N#Cc1c(SCC(=O)Nc2nc3ccccc3s2)sc2c(O)cc(=O)[nH]c12 | inconclusive [inhibitor, partial curve] | 
39 | Cc1ccc(Cl)c(OC(=O)Cn2cnc3c2c(=O)n(C)c(=O)n3C)c1 |  | inconclusive: -13.7% [inhibitor]
40 | N#Cc1ccccc1OCC(=O)Nc1nc(-c2ccccn2)cs1 |  | inactive: -6.7%
41 | COc1cccc(NC(=S)N2CCC(c3ccc(C)cc3)C2)c1 (configuration not stated) | inconclusive [inhibitor, full curve, poor fit] | 
42 | O=C(O)COc1ccccc1/C=N/NC(=O)CSc1nc2ccccc2c(=O)n1-c1ccccc1 | inconclusive [inhibitor, single point] | 
43 | O=C(N/N=C/c1cccc2nccnc12)c1ccccc1O | inconclusive [inhibitor, single point] | 
44 | CCOC1=C/C(=C/c2c(N)n3nc(-c4ccccc4)sc3nc2=O)C=CC1=O | inconclusive [inhibitor, partial curve, poor fit] | 
45 | Cc1ccc(S(=O)(=O)O/N=C2\CCCc3ccccc32)cc1 |  | inactive: 2.18%
46 | CCOC(=O)C(CSCc1ccccc1)NC(=O)OC(C)(C)C (configuration not stated) | inconclusive [inhibitor, full curve] | 

Row | Compound | Potency | activity change, negative = inhibition
47 | C[C@H]1CN([C@@H](C)CO)C(=O)CCCn2nncc2CO[C@H]1CN(C)S(=O)(=O)c1ccc(-n2cccn2)cc1 | inconclusive [inhibitor, partial curve] | 
48 | COC(=O)[C@@]12C[C@@H](CC(=O)NCCc3ccccc3OC)C(=O)N(CCc3ccc(OC)c(OC)c3)C1=CCC(C)(C)C2 |  | inactive: -19.3%
49 | COc1ccc(C/C(N)=N/OC(=O)COc2ccccc2C)cc1 | inconclusive [inhibitor, partial curve, poor fit] | 
50 | CCN1C(=O)C(CC(=O)Nc2ccc(F)cc2)N(CCc2ccc(OC)cc2)C1=S (configuration not stated) | inconclusive [inhibitor, partial curve] | 
51 | Cc1ccc(NC(=O)CNC(=O)c2ccco2)cc1 |  | inactive: -9.41%
52 | CCc1ccccc1NC(=O)COC(=O)c1c(C)nsc1NC |  | inactive: 8.62%
53 | O=C(Nc1nnc(-c2ccc(Cl)cc2)o1)c1nc2ccccc2s1 |  | inactive: -15.8%
54 | O=C1CSC(c2ccc(Cl)cc2Cl)N1c1ccccn1 (configuration not stated) |  | inactive: -14.2%
55 | O=c1oc(-c2ccccc2)cc(Cl)c1Cl | inconclusive [inhibitor, partial curve] | 
56 | O=[N+]([O-])c1ccc(N/N=C/c2cccc(O)c2O)c(S(=O)(=O)N2CCOCC2)c1 | inconclusive [inhibitor, partial curve] | 
57 | CC(OC(=O)c1cc2sccc2n1C)C(=O)NCCc1ccccc1 (configuration not stated) | inconclusive [inhibitor, single point] | 
58 | CCOc1ccccc1NC(=O)CSc1nc2ccccc2nc1N1CCCC1 | inconclusive [inhibitor, single point] | 
59 | O=C(COc1ccc2ccccc2c1Br)NNC(=O)Nc1ccccc1 | inconclusive [inhibitor, single point] | 
60 | NS(=O)(=O)c1ccc(NC(=O)C2Cc3ccccc3C(=O)O2)cc1 (configuration not stated) | inconclusive [inhibitor, single point] | 
61 | CC(/C=C/c1ccco1)=N/NC(=O)CNc1ccccc1C | inconclusive [inhibitor, single point] | 
62 | O=c1[nH]ncc(N/N=C\c2cccs2)c1Cl |  | inconclusive: -31% [inhibitor]
63 | O=C(CN1CCN(c2nc(-c3ccc(Cl)cc3)cs2)CC1)NCc1ccco1 | inconclusive [inhibitor, single point] | 
64 | CCCCn1c(NS(=O)(=O)c2ccccc2)c(S(=O)(=O)c2ccc(C)cc2)c2nc3ccccc3nc21 | active: 50.1 µM | 
65 | O=c1oc2ccccc2c(Nc2cc3ccccc3cc2O)c1[N+](=O)[O-] | inconclusive [inhibitor, full curve, poor fit] | 
66 | Cc1ccc(C(=O)NCCCNC(=O)COc2ccc(Cl)c(C)c2)cn1 | inconclusive [inhibitor, partial curve] | 
67 | COCC1CCN(c2nc3nonc3nc2N2CCSCC2)C1 (configuration not stated) | inconclusive [inhibitor, single point] | 
